# Test results from the supplement of paper PMC10338343.
# ± gives the standard deviation. Over roughly 6,600 sequences, “pre-steady-state target cleavage rate” has its median near 0.07; the highest 2% begin near 0.72. The entries are a selection whose mix differs from that of the whole data set.
# Tested on: MIWI (PIWIL1) piRISC loaded with Kctd7 piRNA (30 nt)
# Assay: pre-steady-state target cleavage rate (min^-1); MIWI and MILI are mouse PIWI proteins and EfPiwi is from a freshwater sponge; tags in brackets are library labels; higher = faster piRNA-guided slicing of the target
# Details: guide: Kctd7 piRNA 5'p-UGUUAAUCUCUCAGAGAAGGUGACAGUGAU; auxiliary factor: 500 nM mouse GTSF1
# In short: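 Sequencing of uncleaved targets, normalised to depth and to weakly complementary targets, was the readout of this Cleave-'n-Seq assay. A transcribed, DNA-blocked target RNA library (0.1 nM) was mixed with 1 nM active affinity-purified piRISC carrying one synthetic guide, with or without 500 nM GTSF1 partner protein, in HEPES–potassium acetate buffer at 33 °C for 0–8 or 0–960 min. Three trials were pooled, k3 was capped at 0.0001 min^-1, and a burst-and-steady-state fit gave the pre-steady-state cleavage rate.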
row,Sequence,pre-steady-state target cleavage rate
1,UAGUGACUCACCUUCUCAGAGAGAUUAACA,0.116 ± 0.013
2,UAGUGACAGUGGAAGAGACUGAGAAUUACA,< 0.0001
3,UAGUGUGUCACCUUCUCUGUGAGAUUAUGA,0.0244 ± 0.0083
4,UAGUGAGUCACCUUCUCUGAGAGAUUGAACA,0.178 ± 0.018
5,UACACUGUCACCUUCUCUGAGAGUUUUACA,0.0952 ± 0.024
6,AUCACUGUCACCUUGUCUGAGAGAUAUUGA,0.42 ± 0.12
7,UAGUGUGUCACCUUCUCUGACAGAUUAACA,0.474 ± 0.036
8,AUCACUGUCAGCCUUCUCUGAGAGAUUAACA,0.251 ± 0.019
9,UUCUCUGUCACCUUCUCUGACAGAUUAACA,0.254 ± 0.021
10,UAGUCUGUCACCUUCUCUGAGAGUUUAAGA,0.177 ± 0.044
11,UAGUGAGACACCUUCUCUGAGUGAUUAACA,0.0186 ± 0.0032
12,AUCACCGUCACCUUCUCUGAGAGAUUAACA,0.67 ± 0.026
13,UAGUGACAGACCAUCUCUGAGAGAUAAACA,0.0072 ± 0.0016
14,UAGUGUGUCACCUUCAGUGAGAGAUUAUGA,0.00476 ± 0.0034
15,UAGACUGUCUCCUUCUCUGAGAGAUUUUGA,0.00511 ± 0.0036
16,UAGUGUGUCACCUUCUGAGAGAGAUUAAGA,0.0352 ± 0.013
17,UAGUGAGUGUGCUUCUCUGAGAGAUUAAGA,0.0188 ± 0.0046
18,UACACUGUGUCCUUCUCUGAGAGAUUUUGA,0.0136 ± 0.0047
19,UAGUGUGUCACCUUCUUUGAGAGAUUAACA,0.435 ± 0.025
20,UAGUGACACACCUUCUCUGAGUGAUAAACA,0.0152 ± 0.0044
21,AUCACUGUCACCAUCUCUGUGAGAUUAACA,0.259 ± 0.021
22,UAGUGACACUGCUUCUCUGAGAGAUUAACA,0.153 ± 0.016
23,UAGUGACAGUGCUUUCUCUGAGAGAUUAACA,0.354 ± 0.033
24,UAGUCUGUCUCCUUCUCUGAGAGAUUAAGA,0.0826 ± 0.015

row,Sequence,pre-steady-state target cleavage rate
1,UAGUGACACACCUUCUCUGAGUGAAUAACA,0.00377 ± 0.0036
2,AUCACUGUCACCUUCUCUCAGAGAUUUUGA,0.0207 ± 0.0088
3,UAGUCUGUCACCUUCUCUGCGAGAUUAACA,0.385 ± 0.03
4,UAGUGAGUCUCCUUGUCUGAGAGAUUAACA,0.0618 ± 0.009
5,UAGUGACACACCAUCUCUGAGAGAUUUACA,0.0811 ± 0.012
6,AUCACACACACCUUCUCUGAGAGAUUAACA,0.563 ± 0.032
7,UAGUCUGUCACCUUCACUGAGAGAUUAACA,0.39 ± 0.02
8,UAGUGAGUGACCUUCUCUGAGAGAUUAACA,0.504 ± 0.035
9,UAGUGUGUCAGCUUCUCUGAGAGAUUAUCA,0.244 ± 0.029
10,AUCACUGUCACCUUCUCUGAGAGAUUAUACA,0.309 ± 0.041
11,UAGUGACUCACCUUCUCUGUGAGAUUAUCA,0.0112 ± 0.0057
12,UUGUCUGUCACCUUCUCUGAGAGAUUAAGA,0.0827 ± 0.014
13,UUCACUGACACCUUCUCUGAGAGAUUAAGA,0.162 ± 0.035
14,UAGUGACUCACCAUCUCAGAGAGAUUAACA,0.0215 ± 0.0043
15,UAGUCUGUGACCUUCUCAGAGAGAUUAACA,0.239 ± 0.016
16,AUCACUGUCACCUUCUCUGUGAGAUUUACA,0.235 ± 0.029
17,UAGAGUGUCACCUUCUCUGAGAGAUAUUGA,0.0679 ± 0.016
18,UAGUGACUCACCUUCUGUGAGAGAUAAACA,0.124 ± 0.016
19,UAGUCUGUCACCUUCUCUCAGAGAUUAAGA,0.0365 ± 0.01
20,UAGUGUGUCACCUUCUCUGAGAGAUUAAACA,0.379 ± 0.043
21,UAGUGUGUCACCUAGACUGAGAGAUUAACA,0.0111 ± 0.0031
22,AUCACUGUCACCUUCUCUCAGAGAUAUUGA,0.00736 ± 0.0043
23,UAGUCUGUCUCCUUGUCUGAGAGAUUAACA,0.173 ± 0.024
24,UAGUGACACACCUUCUCUGAGAGAUUAUCA,0.265 ± 0.047

row,Sequence,pre-steady-state target cleavage rate
1,UUCACUGUCACCUUCUCUUGAGAGAUUAACA,0.129 ± 0.043
2,UACACUGUCACCUUCCCUGAGAGAUUAACA,0.292 ± 0.042
3,UAGUGAGUCACCUUCUCUGAGAGAUUGACA,0.316 ± 0.045
4,UAGUGACUGACCUUCACUGAGAGAUUAACA,0.237 ± 0.035
5,AUCACAGUCACCUUCUCUGAGACAUUAACA,0.225 ± 0.017
6,UAGUCUGUCACCAUCUCUGACAGAUUAACA,0.0239 ± 0.0062
7,UAGUGAGUCACCUUCUCUCAGUGAUUAACA,0.00654 ± 0.0044
8,UAGUGACUCACCUUCUCUGAGAGCUUAACA,0.361 ± 0.048
9,AUCACUCUCACCUUCUCUGAGAGAUUAUCA,0.106 ± 0.021
10,UAGUCUGUCACCUUCUCUGAGUCAUUAACA,0.00996 ± 0.0019
11,AUCACUGUCAGCUUCUCUGAGACAUUAACA,0.0098 ± 0.0024
12,UAGUCUGUCUCCUUCUCUGAGAGAUAUUGA,0.00473 ± 0.0035
13,AUCACUGUCACCUUGUCUGAGAGAUUAUGA,0.393 ± 0.089
14,UAGUGACAGACCUUGUCUGAGAGAUAAACA,0.0136 ± 0.0037
15,UAGUCUGUCACCUUCUCUGAGAGAUUAAUA,0.23 ± 0.031
16,AUCACUGUCACGAUCUCUGAGAGAUUAAGA,0.0977 ± 0.015
17,UAGACUGUCACCUUCUCUAAGAGAUUAACA,0.372 ± 0.023
18,UAGACUGUCACCUUCUCAGACAGAUUAACA,0.0916 ± 0.0075
19,UAGUGACUCAGCUUCUCUGACAGAUUAACA,0.0276 ± 0.0052
20,UAGUGUGUCACCUUUUCUGAGAGAUUAACA,0.598 ± 0.046
21,UAGUGUGUCACCUUCUCAGAGAGAUUAUCA,0.158 ± 0.025
22,UAGUGUGUCACCUUCUCUGAGGGAUUAACA,0.348 ± 0.023
23,UAGUCUGUCACCUUCUCUCUGAGAUUAAGA,0.00594 ± 0.0036
24,UUCACUGUCACCUUCUCUGAGAGAUUAGACA,0.229 ± 0.038
